Results published in PubChem BioAssay AID1508624 (National Center for Advancing Translational Sciences (NCATS), 2021).
Screen size: about 48,000 compounds; about 120 (0.25%) were called active. Another 4% or so got no clear call; they are omitted. Calls follow the shape of the dose curve; as a rule, active = well fitted activation curve with a large enough effect; inconclusive = small, poorly fitted or top-dose-only effect, or another doubt; inactive = no such curve, though single readings can be large or run the other way. The list shows a part of the results.

Assay: Primary qHTS for Identification of Small Molecule Activators of Huntingtin-Antisense Promoter Activity; also: nearly all actives have a fitted effect of over 55% in size
Details: HEK293 HTT-AS promoter firefly luciferase reporter, 24 h; series mostly up to 57.5 µM; activity change, positive = activation: at the top concentration
Outline: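 Quantitative HTS used concentration series of up to 57.5 uM final on HEK293 luciferase reporter cells, 24 h at 37 degrees C. Readout was Dual-Glo firefly luminescence.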

Activity change, positive = activation, inactive:
CC(C)CN(CCNC(=O)c1cn(C)c2ccc(S(=O)(=O)N3CCOCC3)cc2c1=O)CC(C)C -1.17%
CSCCC(NS(=O)(=O)c1ccc2c(c1)oc(=O)n2C)C(=O)NCc1ccccc1 (centres undefined) -2.97%
Cc1ccc2cccc(NC(=O)c3ccc(-c4cccc(Cl)c4Cl)o3)c2n1 -1.97%
COc1ccc(CCCc2nnc(SCC(=O)Nc3ccc(F)cc3)o2)cc1C 9.22% [at 11.5 µM, percent change from vehicle, -100% = no light]
COc1ccc(CCNS(=O)(=O)c2ccc(N3CCCCS3(=O)=O)cc2)cc1OC -14.6%
Cc1nc2c(-c3ccccc3)c(C)nn2c(C)c1CCC(=O)NCc1ccc(Cl)cc1 -7.14%
Cc1ccc(CNC(=O)CCCN2C(=O)CCn3nc(-c4cn(C)c5ccccc45)cc32)cc1 -26.2%
O=C(Cn1cnc2onc(-c3ccc(F)cc3)c2c1=O)Nc1cccc(C(F)(F)F)c1 -50.1%
CS(=O)(=O)N(CC(=O)NCCSCc1ccccc1)c1cc(C(F)(F)F)ccc1Cl -15.1%
COc1ccc(NC(=O)CC2C(=O)N(c3ccccc3)C(=O)N2C2CCCCC2)cc1 (centres undefined) -12.7%
COc1ccccc1CNC(=O)c1cc2cccc3c2n1CC(C)S3 (centres undefined) -36.7%
CCOC(=O)c1nnn(CC(=O)Nc2cc(C)cc(C)c2)c1C(=O)OCC 9.86%
CCOC(=O)c1ccc(NC(=O)c2nc(SC(C)C)ncc2Cl)cc1 -4.33%
CCc1ccc(NC(=O)N2c3ccccc3Sc3ccccc32)cc1 -28.8%
CCN(Cc1ccccc1)S(=O)(=O)c1ccc2c(c1)CCCN2C(C)=O -36.6%
Cc1ccc(C)c(Cn2cnc3c(cnn3-c3ccc(F)cc3)c2=O)c1 -2.03%
CCOC(=O)N1CCC2(CC1)OC(=O)C(C)=C2C(=O)NCc1ccc(C)cc1 -6.9%
CCNC(=O)c1ccc(CSc2nc3cccnc3n2Cc2ccc(OC)cc2)cc1 -16.3%
CCC1CCc2nc3sc(C(=O)Nc4ccc(C)cc4C)c(N)c3cc2C1 (centres undefined) -10%
COC(=O)Cn1ccc2cc(S(=O)(=O)N3CCCCCC3)ccc21 -24.1%
CCN(C(=O)CN1C(=O)COc2ccc(S(=O)(=O)N3CCOCC3)cc21)c1cccc(C)c1 -1.3%
O=C(NCCc1csc(-c2cccc(F)c2)n1)c1ccccc1C(F)(F)F -18.1%
COC(=O)c1ccc(NC(=O)Cn2c(-c3nonc3N)nc3ccccc32)cc1 4.24%
CCCc1cnc2c(c1SCC(=O)Nc1c(C)cc(C)cc1C)c(=O)n(C)c(=O)n2C -4.92%
Cc1nn(CC(=O)N2CCC(C)CC2)c(=O)c2cc3occc3n12 0.987%
Cc1cccc(-c2nc(CN3CCCC(C(=O)NCc4ccc(Cl)cc4)C3)c(C)o2)c1 (centres undefined) -37.1%
CSc1ccc(C(=O)Nc2ccc(-c3nc4ccccc4s3)c(O)c2)cc1 -14.1%
CCC(=O)N1CCc2cc(S(=O)(=O)CCC(=O)N3CCN(c4cccc(Cl)c4)CC3)ccc21 -30.6%
COc1ccc2c(c1)c1c(c(=O)n(Cc3ccccc3)c(=O)n1CC(=O)NCc1ccc(C)cc1)n2C -10.5%
Cc1cc(C)cc(NC(=O)c2oc3ccc4c(c3c2C)C(=O)CC(C)(C)O4)c1 -48.2%
COc1ccc(N2CCN(C(=O)CCC(=O)NNc3nc4ccccc4c4nc(C)nn34)CC2)cc1 -10.4%
Cc1ccc(C)c(N2CCN(C(=O)c3ccc(Nc4nc5ccccc5n5nnnc45)cc3)CC2)c1 13.8%
Cc1ccc(OCc2nnc(SCC(=O)Nc3ccccc3C(C)C)o2)cc1 -2.08%
CCc1ccc(NC(=O)c2ccc3nc(C(C)C)oc3c2)cc1 14.6%
COc1cc(OC)c(NC(=O)Cn2c(=O)cc(C)c3c(C)nn(-c4ccc(C)cc4)c32)cc1Cl -10%
CSc1ccc(-c2nc3c(C)cccn3c2Nc2ccc3c(c2)OCCO3)cc1 -3.47%
CC(=O)Nc1cccc(-c2nnc(SCC(=O)c3cc([N+](=O)[O-])ccc3Br)o2)c1 -27.2%
COc1cc(C(c2c(C)[nH][nH]c2=O)c2c(C)[nH][nH]c2=O)ccc1OC(=O)c1ccccc1F -1.01% [at 11.5 µM, percent change from vehicle, -100% = no light]
CC(=O)c1cccc(Nc2c3c(nc4nc(-c5cccs5)nn24)CCCC3)c1 -16.9%
CC(=O)Nc1ccc(NC(=O)CSc2nnc3c4cc(Br)ccc4n(C)c3n2)cc1 11.4%
CCCC(=O)Nc1cccc(-c2nc3cc(C)c(C)cc3o2)c1C -4.24%
COC(=O)c1ccc2oc(=O)c(S(=O)(=O)c3ccc(C)cc3)cc2c1 -7.79%
Cc1c(NC(=O)OC[C@@H]2COCCN2)cn2ncnc(Nc3ccc4c(cnn4Cc4cccc(F)c4)c3)c12 -35.1%
Cc1ccc(CNC(=O)C2CCN(c3nc4ccc(C)cc4[nH]3)CC2)cc1 -8.87%
COc1cccc(C(=O)NC(c2ccc(Cl)cc2)c2cc(Cl)c3cccnc3c2O)c1 (centres undefined) -43.7%
FC(F)(F)c1ccc(C2=Nc3ccccc3NC(c3cccs3)=N2)cc1 -11.4%
COc1ccc(F)cc1NC(=O)C1CCN(c2nc(-c3ccc(OC)c(OC)c3)no2)CC1 28.4%
Cc1ccc(-n2nc(C)c3c(C)cc(=O)n(CC(=O)NCc4ccc(OC(C)C)cc4)c32)cc1 -23.3%
COc1ccc(Nc2ncc(C(=O)Nc3cc(C)ccc3OC)c3ccccc23)cc1 -23.4%
Cc1ccc2c(c1)c1c(c(=O)n(-c3ccccc3C)c(=O)n1Cc1ccccc1F)n2C -22.9%
COc1ccc(NC(=O)CCc2c(C)nc3c(-c4ccccc4)c(C)nn3c2C)cc1Cl -30.3%
Cn1c(C(=O)NCc2ccc(Cl)cc2)cc2c(=O)n(C)c3ccccc3c21 -13.4%
Cc1ccc(Cl)cc1NC(=O)Cn1c(=O)oc2cc(S(=O)(=O)N3CCCCCC3)ccc21 -32%
Cc1ccc2nc(NCCN)c3ncc(C)n3c2c1 -34.2%
COc1ccc(-c2noc(C(C)NC(=O)c3ccco3)n2)cc1 (centres undefined) -35.4%
Cc1ccc(NC(=O)c2ccc(=O)n(CC(=O)Nc3cc(C)cc(C)c3)n2)cc1 -5.43%
Cc1cccc2c1-c1sc(C(=O)NCCCN3CCN(c4cccc(Cl)c4)CC3)cc1CO2 -41.7%
Cc1ccc(OCC(=O)Nc2c(Cl)ccc3nsnc23)cc1C -24%
CCOC(=O)N1CCc2c(sc(NCc3cccs3)c2C(=O)Nc2cc(OC)ccc2OC)C1 -16.2%
